This is an account of results in US12545673B2, “Imidazopyridine derivative and pharmaceutical composition comprising same as active ingredient” (TSD LIFE SCIENCES CO., LTD., priority 2019, dated 2026).

pIC50: −log10 of the molar value. Like-named read-outs stand apart in the source and are kept apart here.

This assay relates to human gastric cancer cell line HS746T. Kind of assay: cells.

As for `CCS(=O)(=O)N1CC[C@H](Nc2c(Br)cnc3[nH]c(-c4cc(C)n(-c5cc(NS(C)(=O)=O)ccc5C)c4C)nc23)C1` [Example 7, N-(3-(3-(6-bromo-7-(((S)-1-(ethylsulfonyl)pyrrolidine-3-yl)amino)-3H-imidazo[4,5-b]pyridine-2-yl)-2,5-dimethyl-1H-pyrrol-1-yl)-4-methylphenyl) methanesulfonamide], the pIC50 (HS746T, 0.1-30 μM, CCK-8) was 5.13. As to `CCS(=O)(=O)N1CC[C@H](Nc2c(Br)cnc3[nH]c(-c4cc(C)n(-c5ccc(NS(C)(=O)=O)cc5C)c4C)nc23)C1` [Example 8, N-(4-(3-(6-bromo-7-(((S)-1-(ethylsulfonyl)pyrrolidine-3-yl)amino)-3H-imidazo[4,5-b]pyridine-2-yl)-2,5-dimethyl-1H-pyrrol-1-yl)-3-methylphenyl) methanesulfonamide], the negative logarithm of the IC50 (pIC50) (HS746T, 0.1-30 μM, CCK-8) is 5.47. The compound `CCS(=O)(=O)N1CC[C@H](Nc2c(Br)cnc3[nH]c(-c4cc(C)n(-c5cccc(NS(C)(=O)=O)c5C)c4C)nc23)C1` [Example 9, N-(3-(3-(6-bromo-7-(((S)-1-(ethylsulfonyl)pyrrolidine-3-yl)amino)-3H-imidazo[4,5-b]pyridine-2-yl)-2,5-dimethyl-1H-pyrrol-1-yl)-2-methylphenyl) methanesulfonamide] had a pIC50 (HS746T, 0.1-30 μM, CCK-8) of 5.43. `CCS(=O)(=O)N1CC[C@H](Nc2c(Cl)cnc3[nH]c(-c4cc(C)n(-c5cc(NS(C)(=O)=O)ccc5C)c4C)nc23)C1` [Example 51, N-(3-(3-(6-chloro-7-(((S)-1-(ethylsulfonyl)pyrrolidine-3-yl)amino)-3H-imidazo[4,5-b]pyridine-2-yl)-2,5-dimethyl-1H-pyrrol-1-yl)-4-methylphenyl) methanesulfonamide] gave a pIC50 below 5.00. On to `CCS(=O)(=O)N1CC[C@H](Nc2c(Cl)cnc3nc(-c4cc(C)n(-c5ccc(OCCN6CCOCC6)cc5)c4C)[nH]c23)C1` [Example 52, (S)-6-chloro-2-(2,5-dimethyl-1-(4-(2-morpholinoethoxy)phenyl)-1H-pyrrol-3-yl)-N-(1-(ethylsulfonyl)pyrrolidine-3-yl)-1H-imidazo[4,5-b]pyridine-7-amine], for which the negative logarithm of the IC50 (pIC50) was below 5.00. `CCS(=O)(=O)N1CC[C@H](Nc2c(Cl)cnc3nc(-c4cc(C)n(-c5cccc(C(=O)N6CCOCC6)c5)c4C)[nH]c23)C1` [Example 54, (S)-(3-(3-(6-chloro-7-((1-(ethylsulfonyl)pyrrolidine-3-yl)amino)-1H-imidazo[4,5-b]pyridine-2-yl)-2,5-dimethyl-1H-pyrrol-1-yl)phenyl) (morpholino) methanone] had a pIC50 of 5.17. The compound `CCN(CC)CCNC(=O)c1cccc(-n2c(C)cc(-c3nc4ncc(Br)c(N[C@H]5CCN(S(=O)(=O)CC)C5)c4[nH]3)c2C)c1` [Example 56, (S)-3-(3-(6-bromo-7-((1-(ethylsulfonyl)pyrrolidine-3-yl)amino)-1H-imidazo[4,5-b]pyridine-2-yl)-2,5-dimethyl-1H-pyrrol-1-yl)-N-(2-(diethylamino)ethyl)benzamide] had a pIC50 of 5.25. As to `CCN(CC)CCNC(=O)c1ccc(-n2c(C)cc(-c3nc4ncc(Br)c(N[C@H]5CCN(S(=O)(=O)CC)C5)c4[nH]3)c2C)cc1` [Example 57, (S)-4-(3-(6-bromo-7-((1-(ethylsulfonyl)pyrrolidine-3-yl)amino)-1H-imidazo[4,5-b]pyridine-2-yl)-2,5-dimethyl-1H-pyrrol-1-yl)-N-(2-(diethylamino)ethyl)benzamide], the pIC50 (HS746T, 0.1-30 μM, CCK-8) is 5.26. As for `CCS(=O)(=O)N1CC[C@H](Nc2c(Br)cnc3[nH]c(-c4cc(C)n(-c5cccc(C(=O)NCN(C)C)c5)c4C)nc23)C1` [Example 60, (S)-3-(3-(6-bromo-7-((1-(ethylsulfonyl)pyrrolidine-3-yl)amino)-3H-imidazo[4,5-b]pyridine-2-yl)-2,5-dimethyl-1H-pyrrol-1-yl)-N-((dimethylamino)methyl)benzamide], for the setting “HS746T, 0.1-30 μM, CCK-8”, the pIC50 was 5.25.

Take `CCS(=O)(=O)N1CC[C@H](Nc2c(Br)cnc3[nH]c(-c4cc(C)n(-c5cccc(C(=O)N(C)CCN(C)C)c5)c4C)nc23)C1` [Example 61, (S)-3-(3-(6-bromo-7-((1-(ethylsulfonyl)pyrrolidine-3-yl)amino)-3H-imidazo[4,5-b]pyridine-2-yl)-2,5-dimethyl-1H-pyrrol-1-yl)-N-(2-(dimethylamino)ethyl)-N-methylbenzamide]: the negative-log IC50 (pIC50) (HS746T, 0.1-30 μM, CCK-8) was 5.27.

Regarding `CCS(=O)(=O)N1CC[C@H](Nc2c(Br)cnc3nc(-c4cc(C)n(-c5cccc(NC(=O)CN(C)C)c5)c4C)[nH]c23)C1` [Example 64, (S)—N-(3-(3-(6-bromo-7-((1-(ethylsulfonyl)pyrrolidine-3-yl)amino)-1H-imidazo[4,5-b]pyridine-2-yl)-2,5-dimethyl-1H-pyrrol-1-yl)phenyl)-2-(dimethylamino) acetamide], the negative logarithm of the IC50 (pIC50) (HS746T, 0.1-30 μM, CCK-8) was 5.39. As for `CCS(=O)(=O)N1CC[C@H](Nc2c(Br)cnc3nc(-c4cc(C)n(-c5cccc(NC(=O)CN6CCN(C)CC6)c5)c4C)[nH]c23)C1` [Example 65], the pIC50 (HS746T, 0.1-30 μM, CCK-8) is 5.57. As for `CCS(=O)(=O)N1CC[C@H](Nc2c(Br)cnc3nc(-c4cc(C)n(-c5cccc(NC(=O)CN6CCOCC6)c5)c4C)[nH]c23)C1` [Example 66, (S)—N-(3-(3-(6-bromo-7-((1-(ethylsulfonyl)pyrrolidine-3-yl)amino)-1H-imidazo[4,5-b]pyridine-2-yl)-2,5-dimethyl-1H-pyrrol-1-yl)phenyl)-2-morpholinoacetamide], where the note is “HS746T, 0.1-30 μM, CCK-8”, the pIC50 was 5.28. Same read-out and setting: to `CCS(=O)(=O)N1CC[C@H](Nc2c(Br)cnc3nc(-c4cc(C)n(-c5ccc(C(=O)N6CCN(C)CC6)cc5)c4C)[nH]c23)C1` [Example 67, (S)-(4-(3-(6-bromo-7-((1-(ethylsulfonyl)pyrrolidine-3-yl)amino)-1H-imidazo[4,5-b]pyridine-2-yl)-2,5-dimethyl-1H-pyrrol-1-yl)phenyl) (4-methylpiperazine-1-yl) methanone] belongs below 5.00; to `CCS(=O)(=O)N1CC[C@H](Nc2c(Br)cnc3[nH]c(-c4cc(C)n(-c5ccc(C(=O)NCCN6CCN(C)CC6)cc5)c4C)nc23)C1` [Example 72, (S)-4-(3-(6-bromo-7-((1-(ethylsulfonyl)pyrrolidine-3-yl)amino)-3H-imidazo[4,5-b]pyridine-2-yl)-2,5-dimethyl-1H-pyrrol-1-yl)-N-(2-(4-methylpiperazine-1-yl)ethyl)benzamide], 5.03. As for `CCS(=O)(=O)N1CC[C@H](Nc2c(Br)cnc3nc(-c4cc(C)n(-c5ccc(NC(=O)CN(C)C)cc5C)c4C)[nH]c23)C1` [Example 73, N-(4-(3-(6-bromo-7-(((S)-1-(ethylsulfonyl)pyrrolidine-3-yl)amino)-1H-imidazo[4,5-b]pyridine-2-yl)-2,5-dimethyl-1H-pyrrol-1-yl)-3-methylphenyl)-2-(dimethylamino) acetamide], the pIC50 (HS746T, 0.1-30 μM, CCK-8) is 5.27. Compound `CCS(=O)(=O)N1CC[C@H](Nc2c(Br)cnc3nc(-c4cc(C)n(-c5cc(NC(=O)CN(C)C)ccc5C)c4C)[nH]c23)C1` [Example 74, N-(3-(3-(6-bromo-7-(((S)-1-(ethylsulfonyl)pyrrolidine-3-yl)amino)-1H-imidazo[4,5-b]pyridine-2-yl)-2,5-dimethyl-1H-pyrrol-1-yl)-4-methylphenyl)-2-(dimethylamino) acetamide] gave a negative-log IC50 (pIC50) of 5.21.
